According to PubChem BioAssay AID1745847 (National Center for Advancing Translational Sciences (NCATS), 2022):
Among all 2,100 compounds or so, about 670 (32%) were called active. This list was built around the results that the source calls inconclusive (neither active nor inactive); the mix of calls is not that of the screen. The call rests on the fitted dose curve; in most records, active means well fitted inhibition curve with a large enough effect; inconclusive means small, poorly fitted or top-dose-only effect; inactive means no such curve, though single readings can be large or run the other way. Potencies beside an inconclusive call are fits to weak or partial responses and may not hold up.

Experiment: CMV-Luciferase Counterscreen for Inhibitors of ATXN expression; further: nearly all actives have a fitted effect of over 55% in size
Details: HEK-293 CMV-luciferase reporter, luminescence, 24 h; series mostly up to 57.5 µM
Source text: PI: Daniel Scoles Ph.D. University of Utah School of Medicine, Salt Lake City, Utah MLPCN Grant: NS073009 Spinocerebellar ataxia type 2 (SCA2) is a multisystem neurodegenerative disease caused by a dominantly acting mutation leading to expansion of a polyQ domain in the ataxin-2 protein (ATXN2). SCA2 patients develop progressive ataxia and later lose function in other neuronal systems. Prominent parkinsonian signs develop in some patients. Like many neurodegenerative disorders, no symptomatic or disease-modifying treatments are known. The primary objective of the proposed research is to identify compounds inhibiting ATXN2 expression and to test them for efficacy in SCA2 mouse models. We have developed a cell-based assay paired with an in vivo mouse model using identical luciferase expression constructs. This approach takes advantage of an ATXN2-luciferase transgene, with the luciferase gene flanked by the upstream and downstream portions of the ATXN2 gene. Here we describe a 5-7 dose quantitative high thoroughput screen (qHTS) for compounds lowering ATXN2 expression. We screened the NIH Molecular Libraries Small Molecule Repository (MLSMR) and NCGC's mechanistically annotated (MIPE) and drug repurposing (NPC) collections of compounds for lowering expression of an ATXN2-luciferase reporter in HEK-293 cells. The assay is a multiplexed cell viability assay to ensure target reduction in the absence of cytotoxicity. Secondary qHTS assays included a CMV-luciferase reporter expressed in HEK-293 cells as well as a biochemical assay using recombinant luciferase to detect inhibitors of the reporter enzyme. Compounds that inhibit ATXN2 expression but is not cytotoxic were selected for confirmatory and secondary screens.
PROTOCOL TABLE (as described by Inglese J, Shamu CE and Guy RK. 2007) SEQUENCE No. (e.g., 1, 2, 3, etc.); PARAMETER (e.g., Cells, Incubation, Reagent, etc.); VALUE; DESCRIPTION. 1; Cells; 4 uL; white, solid bottom, 1536-well Greiner assay plate. 2; Incubation; 2 hr; 37 degree C in 5% humidified CO2. 3; Compounds; 23 nL; Kalypsis pintool (Wako USA) equipped with a 1536-well pin head. 4; Incubation; 24 hr; 37 degree C in 5% humidfified CO2. 5; Reagent; 1 uL; Gly-Phe-7-Amino-4-trifluoromethylcoumarin. 6; Incubation; 30 min; 37 degree C in 5% humidfified CO2. 7; Detection; Fluorescence; Viewlux plate reader (PerkinElmer). 8; Reagent; 3 uL; SteadyGlo luciferase solution (Promega). 9; Incubation; 5 min; room temperature. 10; Detection; Luminescence; ViewLux plate reader (PerkinElmer). NOTES (numbers refer to Sequence numbers above) 1. HEK-293 cells expressing CMV-luciferase reporter (designated as SC cells) were suspended in phenol-red free DMEM and dispensed in assay plates using a Multidrop Combi dispenser (Thermo Fisher Scientific). 2. Assay plates were incubated. Evaporation was prevented by covering assay plates with metal lids containing holes to allow gas diffusion. 3. Compounds were added in a dose response manner with the final concentrations of 57, 11.4, 2.28, 0.46, 0.091, 0.018, 0.0037 uM. Vehicle-only plates, with DMSO being pin-transferred to columns 5-48, were inserted uniformly at the beginning and the end of each library to monitor and record any shifts in assay performance. 5. 125 uM Gly-Phe-7-Amino-4-trifluoromethylcoumarin (MP Biomedicals) working concentration was used at a final concentration of 25 uM. 7. To assess cell viability; the assay plates were read using the ViewLux high-throughput CCD imager (PerkinElmer), wherein single end-point fluorescence measurement was acquired (excitation 405/10; emission 540/25 nm). 8. Detection reagent SteadyGlo Luciferase (Promega) was added to the assay plate. 10. Luminescence is then measured on the ViewLux imager equipped with a clear emission filter using a 2 sec exposure. […]
On the % scale 0 is the no-effect control and ±100 the full control effect; potency means the concentration at half of the fitted maximal effect; tags describe the fitted curve by direction and shape.

| SMILES | Potency | activity change, negative = inhibition |
| --- | --- | --- |
| OCC1(CCOc2ccccc2)CCN(CC2=Cc3cc(Cl)ccc3OC2)CC1 | inconclusive: 20 µM [inhibitor, single point] |  |
| CC(=O)c1ccc(C(=O)Nc2nnc(-c3ccc(Cl)cc3)o2)cc1 | inconclusive: 5.62 µM [inhibitor, single point] |  |
| CCN1CCN(CCNC(=O)c2ccc(/C=C3/Sc4ccccc4N(Cc4cccc(C)c4)C3=O)cc2)CC1 | inconclusive: 31.6 µM [inhibitor, single point] |  |
| Cc1ccnc(NC(c2ccccc2)c2ccc3cccnc3c2O)c1 (centres undefined) | inconclusive: 11.2 µM [inhibitor, partial curve, poor fit] |  |
| CCN(CC)c1ccc2c(Cl)c(Br)c(=O)oc2c1 | inconclusive: 7.08 µM [inhibitor, single point] |  |
| O=C(Nc1nc(-c2ccccn2)cs1)Nc1ccc(F)cc1F | inconclusive: 7.94 µM [inhibitor, full curve] |  |
| CCCCn1c(/C=N/Nc2nc3ccccc3[nH]2)nc2ccccc21 | inconclusive: 8.91 µM [inhibitor, single point] |  |
| O=C(Nc1ccccc1C(=O)Nc1nnc(C(F)(F)F)s1)c1ccccc1 | inconclusive: 1 µM [inhibitor, full curve, poor fit] |  |
| COc1cc(/C=C/C(O)=C/C(=O)/C=C/c2ccc(O)cc2)ccc1O |  | inactive: -3.01% [at 11.4 µM] |
| CCCNC(=O)c1ccc2c(=O)c(O)c(-c3ccc(F)cc3)[nH]c2c1 | inconclusive: 25.1 µM [inhibitor, single point] |  |
| COc1ccc(-c2c[n+]3c(n2-c2ccc(C)cc2)CCCCC3)cc1 | active: 6.31 µM |  |
| O=C(NCc1ccco1)c1nc2c(nnn2Cc2ccccc2Cl)c(=O)[nH]1 | active: 1.58 µM |  |
| CCn1c2ccccc2c2cc(/C=N/n3cnnc3)ccc21 | inconclusive: 2.51 µM [inhibitor, partial curve, poor fit] |  |
| C[C@@H]1ON(C)[C@H]2C[C@H]3c4[nH]c5ccc(-c6ccc7c(c6)OCO7)cc5c4CCN3C(=O)[C@@H]12 | inconclusive: 14.1 µM [inhibitor, partial curve, poor fit] |  |
| CN1CCN(C2Cc3cc(Cl)ccc3Sc3cc(F)ccc32)CC1 (centres undefined) | inconclusive: 4.47 µM [inhibitor, single point] |  |
| O=C(CNS(=O)(=O)c1ccc([N+](=O)[O-])cc1)N/N=C/c1ccc(O)cc1O | inconclusive: 4.47 µM [inhibitor, partial curve] |  |
| O=C(N/N=C/c1cc(Br)ccc1O)C(c1ccncc1)N1CCOCC1 (centres undefined) | active: 10 µM |  |
| CCCCC(=O)NC(c1ccc(N(CC)CC)cc1)c1ccc2cccnc2c1O (centres undefined) | active: 0.282 µM |  |
| OC(CNCCc1ccccc1)COc1ccc(OCC(O)CNCCc2ccccc2)cc1 (centres undefined) | inconclusive: 28.2 µM [inhibitor, single point] |  |
| CC(C)C(=O)NC(c1cccc([N+](=O)[O-])c1)c1ccc2cccnc2c1O (centres undefined) | active: 2.82 µM |  |
| COc1cccc(C(=O)NC2CC3CCCC(C2)N3CC(=O)Nc2ccccc2C(F)(F)F)c1 (centres undefined) | inconclusive: 12.6 µM [inhibitor, partial curve, poor fit] |  |
| COc1ccccc1N(C)S(=O)(=O)c1ccc(C(=O)Nc2ccc(N3CCOCC3)cc2)cc1 | inconclusive: 12.6 µM [inhibitor, partial curve, poor fit] |  |

| SMILES | Potency | activity change, negative = inhibition |
| --- | --- | --- |
| CN1CCCC1CCOC(C)(c1ccccc1)c1ccc(Cl)cc1 (centres undefined) | inconclusive: 22.4 µM [inhibitor, partial curve, poor fit] |  |
| O=C(N/N=C/c1cc(Br)cc(Cl)c1O)c1ccc2c(c1)OCO2 | inconclusive: 14.1 µM [inhibitor, partial curve, poor fit] |  |
| COc1cc(/C=C/c2ccc3cccc(O)c3n2)cc(OC)c1OC | inactive |  |
| Cc1cc(C)c(CSc2ncc(-c3ccc([N+](=O)[O-])cc3)[nH]2)c(C)c1 | inconclusive: 31.6 µM [inhibitor, single point] |  |
| COc1ccc2c(c1)c[n+](C)c1c3cc(OC)c(OC)cc3ccc21 | inconclusive: 14.1 µM [inhibitor, partial curve, poor fit] |  |
| N#Cc1cc2c(=O)n3ccccc3nc2n(-c2ccccc2Cl)c1=O | inactive |  |
| Cc1cc(Cl)ccc1-c1cc2nc(NCCCN(C)C)n(C)c(=O)c2s1 |  | inactive: 5.92% [at 11.4 µM] |
| O=S(=O)([N-]c1nc2ccccc2nc1-[n+]1ccc(Cc2ccccc2)cc1)c1ccc(Br)s1 | active: 14.1 µM |  |
| Cc1ccc2nc(N(CCCN(C)C)C(=O)c3ccc(S(=O)(=O)N4CCCCCC4)cc3)sc2c1 |  | inactive: -18.5% [at 11.4 µM] |
| COc1ccc(C)cc1NC(=O)C(Sc1nnc(-c2ccncc2)n1-c1ccc(Cl)cc1)c1ccccc1 (centres undefined) | inconclusive: 3.16 µM [inhibitor, partial curve] |  |
| CC(C)(C)c1ccc(OCCCC(=O)NNC(=O)c2ccccc2O)cc1 | inconclusive: 14.1 µM [inhibitor, partial curve, poor fit] |  |
| Cc1ccc(-n2cccn2)c(CN2CCCC(C(=O)c3ccc4c(c3)OCO4)C2)c1 (centres undefined) | inconclusive: 17.8 µM [inhibitor, partial curve] |  |
| CCc1sc(C(=O)Nc2nc(-c3ccccn3)cs2)cc1C | inconclusive: 8.91 µM [inhibitor, partial curve, poor fit] |  |
| COc1ccc(CCNC2=C(Cl)C(=O)N(CCc3ccccc3)C2=O)cc1OC | inconclusive: 3.16 µM [inhibitor, partial curve] |  |
| CSc1sc(-c2nnc(SCC(=O)Nc3ccc(Cl)cc3)n2C)c2c1C=CCC2 |  | inactive: -19.8% [at 11.4 µM] |
| NCCCCCc1nnc(SCc2ccccc2Cl)o1 |  | inactive: -36.5% [at 11.4 µM] |
| CCOc1ccc(CCNC(=O)c2ccc(OCc3c(C)noc3C)cc2)cc1OCC | inconclusive: 3.16 µM [inhibitor, partial curve] |  |
| CCOc1ccc(-c2c[n+]3c(n2-c2ccccc2)CCCCC3)cc1 | active: 6.31 µM |  |
| O=C(Nc1nonc1-c1ccc(Cl)cc1)c1ccccc1 | inconclusive: 39.8 µM [inhibitor, single point] |  |
| CCCOc1ccc(C(=O)NC(=S)NNC(=O)c2c(-c3ccccc3)noc2C)cc1 | inconclusive: 2 µM [inhibitor, partial curve, poor fit] |  |
| CCCC(=O)N1CCCC(c2cc(C(=O)Nc3ccccc3)no2)C1 (centres undefined) | inconclusive: 22.4 µM [inhibitor, partial curve, poor fit] |  |
| O=C(CSCC(=O)Nc1ccccc1)N/N=C/c1c(O)ccc2ccccc12 | active: 0.501 µM |  |

| SMILES | Potency | activity change, negative = inhibition |
| --- | --- | --- |
| COc1cc([N+](=O)[O-])cc(/C=N/NC(=O)C(C)Nc2cccc3ccccc23)c1O (centres undefined) |  | inactive: 8.76% [at 11.4 µM] |
| CN1CCN(c2ccc(-c3cc(NC=O)c4ncc(-c5ccc(F)c(Cl)c5)n4c3)cc2)CC1 | inconclusive: 39.8 µM [inhibitor, single point] |  |
| Cc1ccc(S(=O)(=O)N(Cc2ccccc2)c2ccccc2C(=O)NCc2ccco2)cc1 | active: 22.4 µM |  |
| N#C/C(=C(/O)c1ccc([N+](=O)[O-])s1)c1nc2ccccc2[nH]1 | inconclusive: 0.251 µM [inhibitor, full curve] |  |
| COc1ccccc1NC(=S)NC(=O)c1ccc(Cn2cc(Br)cn2)cc1 | inactive |  |
| CC(=O)NC(c1cccs1)c1cc(Br)c2cccnc2c1O (centres undefined) | active: 4.47 µM |  |
| Cc1sc(NC(=O)c2cc(-c3ccc(Cl)cc3)nc3ccccc23)c(C(N)=O)c1C | inconclusive: 31.6 µM [inhibitor, single point] |  |
| COC(=O)C1=C(C)N(c2ccc(Cl)c(Cl)c2)C(=O)C1 | inconclusive: 3.55 µM [inhibitor, single point] |  |
| COc1ccc(Cl)cc1C(=O)Nc1ccccc1N1CCN(C(=O)C(C)C)CC1 | inconclusive: 25.1 µM [inhibitor, partial curve, poor fit] |  |
| Cc1cc(OCCCCCn2ccnc2)cc(C)c1Cl | inconclusive: 31.6 µM [inhibitor, single point] |  |
| O=C(NCc1ccccc1C(F)(F)F)c1cccc2c1C(=O)c1ccc(N3CCC(N4CCCCC4)CC3)cc1S2(=O)=O |  | inactive: 34.1% [at 11.4 µM] |
| O=c1nccc(N/N=C/c2ccccc2O)[nH]1 | inconclusive: 39.8 µM [inhibitor, single point] |  |
| Cc1ccc(-c2c(C#N)c(N)n3c(nc4ccccc43)c2C#N)cc1 | active: 7.08 µM |  |
| CN1CCN(CC#CCn2c3ccccc3c3ccccc32)CC1 | inconclusive: 20 µM [inhibitor, partial curve, poor fit] |  |
| CCOc1ccccc1N1CCN(c2ncnc3scc(-c4ccc(OC)cc4)c23)CC1 | inconclusive: 11.2 µM [inhibitor, partial curve, poor fit] |  |
| O=C1C=C(Nc2ccccc2O)c2ccccc2C1=O | active: 10 µM |  |
| COc1ccc(-c2oc3c(OC)c(OC)c(OC)c(O)c3c(=O)c2OC)cc1OC | inconclusive: 39.8 µM [inhibitor, single point] |  |
| CCC(C)N1C(=O)S/C(=C/c2ccc(Sc3nc4ccccc4[nH]3)o2)C1=O (centres undefined) | inconclusive: 10 µM [inhibitor, partial curve] |  |
| Cc1cc2c(N=O)c(NO)ccc2[nH]1 | active: 10 µM |  |
| CCc1nc2ccc(C(=O)N(C)Cc3ccccc3)cn2c1N(C)Cc1ccc(OC)cc1 | inconclusive: 39.8 µM [inhibitor, single point] |  |
